Test results as given in the supplement of paper PMC3334620.
The full ranking holds about 33,000 sequences; the median of “E-score (-0.5 to 0.5)” is about -0.012, and the highest 2% start at about 0.27. This is one part of the list.

Target: T1, Vhr1 (UniProt P40522)
T1 sequence: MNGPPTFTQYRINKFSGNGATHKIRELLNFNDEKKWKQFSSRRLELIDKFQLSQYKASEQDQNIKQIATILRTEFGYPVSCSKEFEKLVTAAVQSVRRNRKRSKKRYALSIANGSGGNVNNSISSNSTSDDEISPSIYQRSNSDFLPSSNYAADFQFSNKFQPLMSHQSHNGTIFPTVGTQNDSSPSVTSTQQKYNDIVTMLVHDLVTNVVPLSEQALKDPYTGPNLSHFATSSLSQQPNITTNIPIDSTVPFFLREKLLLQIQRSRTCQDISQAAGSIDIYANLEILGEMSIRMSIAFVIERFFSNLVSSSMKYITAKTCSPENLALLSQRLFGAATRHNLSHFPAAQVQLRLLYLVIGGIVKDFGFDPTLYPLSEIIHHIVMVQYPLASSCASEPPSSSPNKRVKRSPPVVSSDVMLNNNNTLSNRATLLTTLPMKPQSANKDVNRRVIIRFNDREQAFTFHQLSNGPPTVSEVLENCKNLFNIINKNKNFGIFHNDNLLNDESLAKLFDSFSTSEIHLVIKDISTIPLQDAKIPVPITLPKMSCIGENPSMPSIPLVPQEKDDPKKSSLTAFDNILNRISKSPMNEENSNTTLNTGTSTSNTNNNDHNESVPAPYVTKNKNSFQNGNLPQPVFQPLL
Experiment: PBM E-score (8-mer binding enrichment) (E-score (-0.5 to 0.5)); higher = stronger / more preferred TF binding; most listed sequences are background and not binding sites
Details: protein concentration: 200 nM; construct: GST-full length
Procedure, shortened: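 Bound GST-tagged yeast transcription factors, applied at about 100-200 nM to double-stranded universal all-10-mer Agilent arrays, were detected with fluorescent anti-GST. Scans were normalised with masliner. A modified Wilcoxon-Mann-Whitney statistic, the E-score, was assigned to each ungapped eight-base word pooled with its reverse complement by the Universal PBM Analysis Suite.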

Row | Sequence | PBM E-score
1 | GCCCATTA | -0.039
2 | CAAAAAAC | -0.0255
3 | GACAAACC | -0.171
4 | ACAATAAG | 0.0477
5 | GCAACTGC | -0.0177
6 | CCAGAGAA | -0.00793
7 | ACTTGGGG | -0.0619
8 | AATGCCCA | -0.0815
9 | CGCGGCCG | -0.0229
10 | GTGCTTCA | 0.126
11 | AATGTACG | -0.225
12 | AAGACAAT | -0.0357
13 | CCTTCTAC | -0.226
14 | AGTATAGA | 0.189
15 | ACAGTTCC | -0.00019
16 | GGGAAGCA | -0.227
17 | CGCCAGCC | 0.131
18 | ACACTGGC | 0.175
19 | CGGCGGAC | 0.175
20 | ACGCCCCA | 0.112
21 | CTTCTTGC | -0.138
22 | CCAAGAGC | 0.128
23 | ATAGGCTC | -0.0945
24 | CCGAAACG | -0.218
25 | CCGGGAGA | -0.0126

Row | Sequence | PBM E-score
26 | CCCCAGTA | -0.205
27 | GTCTTAAC | -0.164
28 | CAATTTAC | -0.137
29 | GATATGCC | -0.0589
30 | CGAGAACA | 0.0469
31 | CCGTGGTC | 0.0319
32 | GGAAGCCA | -0.00802
33 | CCGCACCA | 0.105
34 | CCGAGCAA | -0.0958
35 | CAGATAGA | 0.0142
36 | CGTAGTGC | -0.0516
37 | GACGACTA | 0.162
38 | ACACTATC | 0.151
39 | TCACACCA | 0.17
40 | CCTCTCCA | -0.234
41 | CAGAATGC | -0.176
42 | AGCCGGTC | -0.0859
43 | GATCCACA | -0.00035
44 | AAATTCCG | -0.216
45 | TGCCGGAA | -0.0716
46 | GCTGTTTA | -0.00255
47 | TAAACTAA | 0.0411
48 | CGAAGAAA | -0.00244
49 | AGTGATCC | 0.151
50 | CGTCTTCA | 0.00489

Row | Sequence | PBM E-score
51 | ACGGGTGA | 0.117
52 | GCCCACGC | -0.271
53 | CATAATTC | 0.078
54 | ACGAGTCA | 0.43
55 | AAATGTAC | 0.0446
56 | ATGCCGTC | -0.101
57 | GCTTAATA | 0.0178
58 | AAACGGGC | -0.0616
59 | TCACTCAA | 0.0734
60 | GCTTACCC | -0.243
61 | ATATTTCG | -0.0136
62 | AAGTATGC | -0.0799
63 | ATTCGTTG | 0.0936
64 | GATGGGAC | -0.0486
65 | GATGTAAC | 0.0264
66 | ATGGTCTG | 0.18
67 | CATTCGAA | -0.0673
68 | GAATGAAA | -0.0321
69 | CTTATAAG | -0.0388
70 | ACTAGATG | 0.0235
71 | CGGTGTCA | 0.0444
72 | TCCGACAA | -0.0624
73 | CCTGCCAC | -0.0185
74 | CTTTTCGC | -0.0263
75 | TCAAAACA | 0.0993

Row | Sequence | PBM E-score
76 | AATTTGTC | -0.112
77 | ATGCTCTA | -0.154
78 | TATAAGAA | -0.237
79 | CGGGTGAG | 0.164
80 | CAACTCCG | -0.0132
81 | AGCTAAGC | -0.0385
82 | ATCCGCAA | -0.149
83 | AACGTAGA | 0.0194
84 | CTCTTGCC | -0.198
85 | AACACTCC | -0.0208
86 | AAAGCTCC | -0.0676
87 | AACGGGTG | 0.0256
88 | ACCCGCTG | -0.0412
89 | CCCCGGCG | 0.199
90 | CTCCGACC | 0.159
91 | CGATGGTC | -0.00779
92 | CAGCAACA | 0.14
93 | ATCAATCG | 0.0912
94 | AGGCACCC | -0.152
95 | CCGGGCAC | -0.0406
96 | GAAGTCAC | 0.269
97 | CTCTCAAG | -0.14
98 | ATTGTGCA | 0.146
99 | ATCGACTG | 0.0924
100 | TATTTACA | 0.0242

Row | Sequence | PBM E-score
101 | CTCCCCCC | -0.0954
102 | AGCTCTTC | -0.0932
103 | ATTCGGAG | -0.00066
104 | CCTTGTAG | -0.122
105 | CATAATGA | 0.175
106 | GGGCCCGA | 0.0795
107 | CCTGCTTC | -0.226
108 | CATATGCA | 0.148
109 | GGAAGGCC | -0.245
110 | GTGCAAAC | -0.0932
111 | ACCCAAAG | -0.174
112 | GTGTAGCA | -0.00447
113 | CGGGAGCC | 0.0751
114 | CCTGTCCG | 0.00199
115 | AAGGCAGC | -0.132
116 | ACATATTG | 0.129
117 | CACCCGGG | 0.0553
118 | CCAGAAAG | -0.162
119 | CGTCAACA | -0.0112
120 | AGCTTAGA | -0.098
121 | AGGTGATA | 0.0194
122 | CAAGAGTG | -0.185
123 | TACGAAGA | -0.0938
124 | AGCTTACT | -0.0121
125 | GGTGTTTA | 0.0565

Row | Sequence | PBM E-score
126 | CCGAGAGG | -0.177
127 | GTTCGGGA | 0.0974
128 | CAGCCTCG | 0.142
129 | GAGCAAGA | 0.0215
130 | ATTCCGTG | 0.0974
131 | ACTATCTA | 0.184
132 | CAGAAGAG | -0.189
133 | CCGTCGCG | 0.167
134 | AAATTTGT | -0.19
135 | AGGAAGAT | -0.0453
136 | GAGAAGAC | -0.158
137 | AGACTAAA | 0.0442
138 | CACGCCAG | 0.05
139 | ATCCGAGC | -0.0102
140 | CCACGAAG | 0.0613
141 | CTTTACCA | -0.0566
142 | CCGTGCCG | -0.00022
143 | CGTACAAA | 0.0349
144 | CCTGCCCG | 0.181
145 | AGAATGTG | -0.014
146 | GTGAGATA | 0.141
147 | ATTATAAC | 0.0333
148 | CTGGGCCA | -0.176
149 | CCTGGATC | -0.0366
150 | CTGCGCAG | -0.111

Row | Sequence | PBM E-score
151 | ATCTTCTC | -0.216
152 | CTCACGCA | 0.29
153 | CCATGCCC | 0.0169
154 | ACCCGCAA | -0.102
155 | ACTTGTTA | 0.0328
156 | CGAACCTA | -0.104
157 | GCTGGCAA | 0.115
158 | ATTAGTGC | 0.195
159 | TCAGGCGA | 0.114
160 | CACAGCGG | 0.00366
161 | AATAGGGA | -0.0744
162 | GAACAATA | 0.234
163 | ATGCCAAC | -0.0202
164 | CAACGATA | -0.0603
165 | AAATCTAG | -0.109
166 | GCGACTGA | 0.132
167 | GTGTTAGA | -0.0244
168 | AGGAGTCG | 0.339
169 | CAGCACAG | 0.197
170 | AGATCCGC | 0.086
171 | TGGTAGAA | -0.104
172 | TAAAAGAA | -0.342
